The source of these data is US20090022714A1, “Combination methods of inhibiting tumor growth with a vascular endothelial growth factor receptor antagonist” (ImClone Systems, Inc., priority 2001, published 2009).

Assay [1] deals with KDR (VEGFR-2), KDR (VEGFR-2)(1-3), KDR (VEGFR-2)(3). The experiment in a line: Binding epitope mapping with KDR Ig-domain deletion variants. The arrangement: species or system human. On the procedure:
(§1) The production of KDR (VEGFR-2) extracellular Ig-like domain deletion variants has been previously described (Lu et al. (2000)). In an epitope-mapping assay, full length KDR (VEGFR-2)-AP, Ap fusions of two KDR (VEGFR-2) Ig-domain deletion variants, and Flk-1-AP were first immobilized onto a 96-well plate (Nunc) using a rabbit anti-AP antibody (DAKO-immunoglobulins, Glostrup, Denmark) as the capture reagent. The plate was then incubated with various anti-KDR (VEGFR-2) Fab proteins at RT for 1 h, followed by incubation with a rabbit anti-human Fab antibody-HRP conjugate. The plate was washed and developed as described above.

Assay [2] concerns the target T1, Flk-1 (Mus musculus, UniProt P35918).
T1 construct: The soluble fusion proteins, KDR (VEGFR-2)-AP, its immunoglobulin (Ig) domain-deletion variants, and Flk-1-AP, were expressed in stably transfected NIH 3T3; made in house; host or cells: stably transfected NIH 3T3 cells; purified from culture supernatant on immobilized anti-AP antibody
Kind of assay: Cross-reactivity with Flk-1-AP in epitope-mapping assay. It counts as binding. As to the method: as §1

The target of assay [3] is KDR (VEGFR-2) (Homo sapiens, UniProt P35968). The experiment in a line: BIAcore analysis of soluble Fab. It counts as binding. The arrangement: the cDNA for KDR (VEGFR-2) extracellular domain is fused in-frame with the cDNA for human placental AP; made in house; host or cells: stably transfected NIH 3T3 cells, purified from supernatant on anti-AP antibody. Particulars: mean±SE. As to the method: The binding kinetics of soluble Fab proteins to KDR (VEGFR-2) were measured by surface plasmon resonance using a BIAcore biosensor (Pharmacia Biosensor). KDR (VEGFR-2)-AP fusion protein was immobilized onto a sensor chip and soluble Fab proteins were injected at concentrations ranging from 1.5 nM to 100 nM. Sensorgrams were obtained at each concentration and were evaluated using a program, BIA Evaluation 2.0, to determine the rate constants kon and koff Kd was calculated from the ratio of rate constants koff/kon.
KDR (VEGFR-2), sequence (P35968 20-764 limits assumed): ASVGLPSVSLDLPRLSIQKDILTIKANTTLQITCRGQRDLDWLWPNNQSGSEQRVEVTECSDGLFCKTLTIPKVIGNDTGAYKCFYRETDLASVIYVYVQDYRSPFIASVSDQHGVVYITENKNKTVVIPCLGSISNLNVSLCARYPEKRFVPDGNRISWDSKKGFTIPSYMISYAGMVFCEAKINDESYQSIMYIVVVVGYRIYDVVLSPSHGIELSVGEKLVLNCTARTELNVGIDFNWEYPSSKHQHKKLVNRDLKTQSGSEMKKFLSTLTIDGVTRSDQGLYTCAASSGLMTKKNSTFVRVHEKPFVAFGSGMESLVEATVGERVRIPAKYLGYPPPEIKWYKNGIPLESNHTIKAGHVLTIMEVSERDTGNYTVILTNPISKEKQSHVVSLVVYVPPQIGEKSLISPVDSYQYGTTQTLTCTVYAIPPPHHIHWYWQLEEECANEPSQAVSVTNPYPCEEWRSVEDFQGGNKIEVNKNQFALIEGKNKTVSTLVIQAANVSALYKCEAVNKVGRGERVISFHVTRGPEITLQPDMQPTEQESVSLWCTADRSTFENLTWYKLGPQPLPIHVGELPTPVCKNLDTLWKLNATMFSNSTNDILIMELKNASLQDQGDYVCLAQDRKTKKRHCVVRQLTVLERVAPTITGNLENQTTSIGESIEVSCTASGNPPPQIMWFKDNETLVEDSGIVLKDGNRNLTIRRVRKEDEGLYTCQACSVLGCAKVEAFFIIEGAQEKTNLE

T1 sequence (P35918 20-762 limits assumed): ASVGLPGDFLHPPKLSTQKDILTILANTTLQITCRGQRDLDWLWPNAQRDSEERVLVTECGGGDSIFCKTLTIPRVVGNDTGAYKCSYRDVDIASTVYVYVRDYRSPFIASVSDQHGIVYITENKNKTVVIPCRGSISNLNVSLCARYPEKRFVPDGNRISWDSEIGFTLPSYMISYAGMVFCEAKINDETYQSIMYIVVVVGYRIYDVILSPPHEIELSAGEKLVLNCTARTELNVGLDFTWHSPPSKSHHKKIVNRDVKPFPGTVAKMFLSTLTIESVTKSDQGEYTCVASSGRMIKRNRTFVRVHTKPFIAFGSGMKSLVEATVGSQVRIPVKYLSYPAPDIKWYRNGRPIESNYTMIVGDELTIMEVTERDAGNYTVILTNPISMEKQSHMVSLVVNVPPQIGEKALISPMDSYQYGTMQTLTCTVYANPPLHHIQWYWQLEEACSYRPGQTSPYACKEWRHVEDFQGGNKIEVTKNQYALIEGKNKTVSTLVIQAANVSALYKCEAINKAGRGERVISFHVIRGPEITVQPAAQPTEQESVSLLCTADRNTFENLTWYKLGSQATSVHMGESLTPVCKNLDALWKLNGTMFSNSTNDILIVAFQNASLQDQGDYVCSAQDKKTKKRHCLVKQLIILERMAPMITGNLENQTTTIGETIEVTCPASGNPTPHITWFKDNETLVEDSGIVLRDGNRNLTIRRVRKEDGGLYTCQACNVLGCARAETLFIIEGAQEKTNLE

B1: D1F7: human anti-KDR (VEGFR-2) VEGF-blocking Fab clone, cross-reactive with Flk-1 (antibody, V domains shown)
VH: EVQLVQSGAEVKKPGASVKVSCKASGGTFSSYAISWVRQAPGQGLEWMGGIIPIFGTANYAQKFQGRVTFTADKSTSTAYMELRSLRSDDTAVYYCARGYDYYDSSGVASPFDYWGQGTLVTVSS
VL: QSVLTQPPSASGTPGQRVTISCSGSTSNIGTNTANWFQQLPGTAPKLLIHNNNQRPSGVPDRFSGSKSGTSASLAISGLQSEDEADYYCAAWDDSLNGHWVFGGGTKLTVL
Take B1: the “location of binding epitope(s)” value in assay [1] is given as “broader binding epitope(s) within KDR (VEGFR-2) Ig domains 1 to 3”. Further, in assay [2], the “cross-reactivity with Flk-1” value was “cross-reacts with Flk-1”. Further, in assay [3], the koff is 18.7 ± 2.12 10^−4 S^−1 and the kon is given as 4.14 ± 1.21 10^4 M^−1S^−1.
